# Test results: publication PMC6919601, “Identification of Plasmodium dipeptidyl aminopeptidase allosteric inhibitors by high throughput screening” (PLoS ONE, 2019)
# The whole screen tested about 110,000 compounds, of which about 230 (0.21%) showed an effect of 50% or more. The list shows a part of the results.
# Molecular target: DPAP1 (Plasmodium falciparum, UniProt Q8IIJ9)
# Test: primary screen, percent inhibition; read by cleavage of a fluorogenic dipeptide substrate; higher = more effect of the substance
# Set-up: species or system P. falciparum D10 trophozoite lysates; single well
# 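Also: 30 min substrate incubation versus DMSO and 10 µM JCP410 controls.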
# Chain of DPAP1 (Q8IIJ9 whole entry, looked up): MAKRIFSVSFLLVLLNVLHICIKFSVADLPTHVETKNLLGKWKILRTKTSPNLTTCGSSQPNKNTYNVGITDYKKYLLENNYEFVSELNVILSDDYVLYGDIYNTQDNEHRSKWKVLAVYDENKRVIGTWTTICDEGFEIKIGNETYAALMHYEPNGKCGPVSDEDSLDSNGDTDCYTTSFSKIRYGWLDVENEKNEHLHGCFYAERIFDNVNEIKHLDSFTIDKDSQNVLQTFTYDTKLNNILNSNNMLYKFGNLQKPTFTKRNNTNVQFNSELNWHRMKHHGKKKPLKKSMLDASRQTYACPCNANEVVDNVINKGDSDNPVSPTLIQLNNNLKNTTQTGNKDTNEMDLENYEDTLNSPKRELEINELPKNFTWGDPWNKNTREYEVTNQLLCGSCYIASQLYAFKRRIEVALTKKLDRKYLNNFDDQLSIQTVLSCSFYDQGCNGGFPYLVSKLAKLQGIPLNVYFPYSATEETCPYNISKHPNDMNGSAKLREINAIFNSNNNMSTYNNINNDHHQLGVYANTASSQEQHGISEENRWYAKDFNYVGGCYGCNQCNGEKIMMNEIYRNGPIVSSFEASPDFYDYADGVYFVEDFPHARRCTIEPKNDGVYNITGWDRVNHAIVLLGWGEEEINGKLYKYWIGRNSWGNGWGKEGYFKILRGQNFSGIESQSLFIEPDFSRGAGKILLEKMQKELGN
row,SMILES,% Inhibition @ 10 uM
1,CCOc1ccc2nc(NC(=O)c3ccc(C(=O)c4ccccc4)cc3)sc2c1,4.95%
2,CC1(C)CC(=O)C2=C(C1)OC1=C(C(=O)CC(C)(C)C1)C2c1ccccc1C(F)(F)F,3.74%
3,C=CCN(CC=C)S(=O)(=O)c1ccc(NC(=O)Nc2cccc(Cl)c2)cc1,1.83%
4,CN(C)CC/C=C1\c2cc(C(=O)O)ccc2CSc2ccccc21,-7.31%
5,CN(C)CCNC(=O)c1ccc(CN2CC(=O)N3CCCCC3C2=O)cc1 (centres unmarked),3.21%
6,O=C(CSc1nc2c(c(C(F)(F)F)n1)CCc1ccccc1-2)NCc1cccnc1,2.46%
7,O=C(O)c1ccc(OCCn2ccnc2)cc1,7.87%
8,Cc1ccccc1OCc1nn2c(-c3ccccc3Cl)nnc2s1,-3.5%
9,O=C(CN1C(C(=O)c2ccccc2)=C(O)c2ccccc2S1(=O)=O)c1ccccc1,-4.43%
10,CCC(C)c1c(O)nc(SCc2ccc(Cl)cc2)nc1O (centres unmarked),37.6%
11,Cc1cc2n(n1)C(c1ccc(N3CCOCC3)cc1)Nc1c(C)cccc1-2 (centres unmarked),0.83%
12,CC(=O)NC(C)(CC(=O)c1ccccc1)c1ccccc1 (centres unmarked),-3.04%
13,COc1ccc(N(CC(=O)Nc2c(C)cccc2C)S(C)(=O)=O)cc1Cl,-5.13%
14,Cc1ccc(-c2nc(CSCc3csc(C)c3C)c(C)o2)cc1,12.5%
15,O=[N+]([O-])c1ccc(N2CCN(Cc3ccsc3)CC2)cc1,-5.41%
16,COC(=O)c1sccc1NC(=S)N1CCN(c2ccccn2)CC1,-2.74%
17,Cc1onc(-c2ccccc2Cl)c1C(=O)O,2.78%
18,COc1cc(C2=N/C(=C\c3ccc(C)o3)C(=O)O2)cc(OC)c1OC,-5.79%
19,COC(=O)c1ccc(NC(=O)C(Cc2ccccc2)N2C(=O)c3ccccc3C2=O)cc1 (centres unmarked),14.4%
20,O=C(Nc1ccccc1)c1cccc(N2C(=O)C3C4C=CC(C4)C3C2=O)c1 (centres unmarked),11.6%
21,CCOc1ccc2oc(=O)cc(CN3CCN(Cc4ccccc4F)CC3)c2c1,3.88%
22,CCc1ccc(NC(=O)CCOc2ccccc2)cc1,6.71%
23,CCOc1ccc(CN2CCN(Cc3cccc(Br)c3)CC2)cc1,-7.18%
24,CCOc1ccc(C(=O)CCNCCC(=O)O)cc1,44.5%
25,CS(=O)(=O)C1=NN2C(=N)/C(=C\c3ccc(OCc4ccccc4)cc3)C(=O)N=C2S1,-5.27%
26,COc1ccc(C(=O)N2C(C)CCCC2C)cc1OC (centres unmarked),-6.82%

row,SMILES,% Inhibition @ 10 uM
1,Cc1oc2c(CN(C)C)c(O)ccc2c(=O)c1-c1cnn(-c2ccccc2)c1,-4.39%
2,CC1CC(=O)C2=C(C1)OC(N)=C(C#N)C2c1cccc(Br)c1 (centres unmarked),0.317%
3,CSc1cccc(NC(=O)C2CCN(S(C)(=O)=O)CC2)c1,-0.968%
4,CCC(C)(NC(=O)CN1C(=O)c2ccccc2C1=O)C(=O)Nc1c(C)cccc1C (centres unmarked),-8.3%
5,CC1CCCN(CCCNc2c(-c3ccc(C(C)C)cc3)c(=O)c2=O)C1 (centres unmarked),2.24%
6,CCCSC1=C(C#N)C(c2ccc(F)cc2)CC(=O)N1 (centres unmarked),3.61%
7,Cc1[nH]c2ccccc2c1CN1CCN(c2ccc([N+](=O)[O-])cc2)CC1,-4.35%
8,CCOc1cc(CNCc2ccccc2)c(Cl)cc1OC,0.316%
9,COc1ccc(/C(C)=N/c2sc3c(c2C#N)CCCC3)cc1OC,13.5%
10,CC(C)CCNC(=O)CCC(=O)n1ncc2cc(Cl)ccc21,-6.58%
11,O=C(O)c1ccc(Cc2ccc(C(=O)O)s2)o1,-1.76%
12,Oc1cccc2ccc(N3CCOCC3)nc12,1.9%
13,COc1cccc(C(=O)Nc2ccc(NC(=O)c3cccc(C)c3)cc2)c1,1.99%
14,Cc1nnc2c(N3CCC(C(=O)O)CC3)nc3ccccc3n12,4.47%
15,CCOc1cc(C2C(C#N)=C(N)Oc3[nH]nc(-c4ccc(OC)cc4)c32)cc(Br)c1O (centres unmarked),-2.83%
16,CN(C)Cc1ccccc1C(O)c1ccccc1 (centres unmarked),0.731%
17,O=C(Nc1cccc(N2C(=O)C3CCCCC3C2=O)c1)c1ccccc1 (centres unmarked),9.82%
18,Cc1ccc(O)c(-c2[nH]nc3c2C(c2ccccc2F)N(Cc2cccnc2)C3=O)c1 (centres unmarked),0.558%
19,COC(=O)CCSc1nccn1Cc1ccccc1,-3.66%
20,COc1cc(-c2noc(CCCC(=O)NC3CCCCC3)n2)cc(OC)c1OC,-2.92%
21,CCc1ccc(C(C)NC(=O)CC#N)cc1 (centres unmarked),-1.65%
22,Cc1cc(Br)ccc1S(=O)(=O)NCc1ccccc1,-2.91%
23,O=C(NCc1ccco1)NC1CCCCC1,2.59%
24,O=C(C1CCCC1)N1CCc2[nH]ncc2C1,3.75%
25,N#C/C(=C\c1ccco1)c1nc(-c2ccc(Cl)cc2)cs1,4.63%
26,COc1ccc(OC)c(C2CC(=O)Nc3c2cc(Br)c2ccccc32)c1 (centres unmarked),-6.36%

row,SMILES,% Inhibition @ 10 uM
1,CC(C)(C)C(=O)Nc1cc(NC(=O)C(C)(C)C)cc(C(=O)Nc2ccccc2)c1,6.79%
2,CCOC(=O)c1c(NC(=O)c2sc3nc(N)c(C#N)cc3c2N)sc2c1CCC2,-1.68%
3,C=CC1CN2CCC1CC2[C@@H](OC(=O)C1CC1)c1ccnc2ccccc12 (some centres unmarked),3.31%
4,COc1ccc(C(=O)Nc2ccc(Cl)cc2C(=O)Nc2cccnc2)cc1,1.03%
5,Cc1onc(-c2ccccc2Cl)c1C(=O)Nc1cccnc1,0.727%
6,Cc1ccc2oc(-c3ccc4c(c3)C(=O)N(C)C4=O)nc2c1,5.17%
7,COc1cccc(-n2cnc3cccc(N)c32)c1,-13.3%
8,CC(C)C(NC(=O)C1CCC(C(C)(C)C)CC1)C(=O)NCCCN1CCCCC1 (centres unmarked),-5.67%
9,C#CCN1C(=O)S/C(=C\c2ccc(OC)c(C)c2)C1=O,0.795%
10,COc1cc2c(cc1OC)C1(CCCC1)CNC2C (centres unmarked),-0.902%
11,CC(=O)N1CCN(c2ccc([N+](=O)[O-])c(N)c2)CC1,-2.62%
12,Cc1ccc(OCC(O)CN2CCN(c3ccccc3F)CC2)cc1C (centres unmarked),2.53%
13,CCN(CC)S(=O)(=O)c1ccc(S(=O)(=O)N2CCOCC2)cc1,-3.9%
14,COCCCNC(=O)c1nnc(O)c2ccccc12,3.54%
15,Cc1nc2ccc(S(=O)(=O)NC(C(=O)NC(C)c3ccccc3)C(C)C)cc2s1 (centres unmarked),1.62%
16,CCCNC(=O)NC1C(NC(=O)NCCC)N(C)C(=O)N1C (centres unmarked),-7.58%
17,Cc1ccc(-c2cn3nc(N4CCC(C(=O)NCc5ccccc5Cl)CC4)sc3n2)cc1,1.21%
18,Cc1ccc(NC(=O)c2ccc(C(=O)Nc3ccc(C)c(Cl)c3)cc2)cc1Cl,-1.22%
19,O=C(COC(=O)c1cccs1)c1ccc2c(c1)OCCO2,4.55%
20,CC(=O)c1ccc(NC(=O)c2cc(C)on2)cc1,-2.09%
21,COc1ccc(-c2nonc2NC(=O)c2ccc(OC)c(Cl)c2)cc1,9.78%
22,NC(=O)c1c(NC(=O)C2CC2)sc2c1CCCCC2,50.4%
23,Cc1ccc(NC(=O)C(=O)NCC(C)(C)C)cc1C,-0.414%
24,Cc1cccc(CNC(=O)C(C)n2ccc3cc(S(=O)(=O)N4CCCC4)ccc32)c1 (centres unmarked),0.931%
25,O=C(NC12CC3CC(CC(C3)C1)C2)c1cc2n(n1)C(C(F)(F)F)CC(c1cccs1)N2 (centres unmarked),-0.0938%
26,COc1ccc2[nH]c3c(c2c1)CCNC3C1CC=C(C)CC1 (centres unmarked),-3%

row,SMILES,% Inhibition @ 10 uM
1,CC(=O)c1c(-c2ccc(C)cc2)nc2n(CCN3CCCCC3)c3ccccc3n12,0.345%
2,CNc1ccc2cccc(Oc3ccc4cccc(O)c4n3)c2n1,-7.25%
3,CN1C(=O)C(=Cc2ccc(OCC(=O)O)c(Cl)c2)C(=O)N(C)C1=O,-4.7%
4,Cc1ccc(OCC(=O)Nc2ccc(S(=O)(=O)N3CCOCC3)cc2)c(C)c1,-5.14%
5,Cc1ccc(S(=O)(=O)n2nc(-c3ccco3)nc2NCc2ccccc2)cc1,-11%
6,CSc1ncc(Cl)c(C(=O)N2CCN(C(c3ccccc3)c3ccccc3)CC2)n1,0.362%
7,Cn1c(=O)c2ccccc2n2c(CCC(=O)N3CCN(Cc4ccccc4)CC3)nnc12,2.6%
8,O=C(CN1C(=O)c2ccccc2Sc2ncccc21)N1CCN(C(=O)c2ccco2)CC1,-4.16%
9,CCc1ccc(-c2cc(C(F)(F)F)n3nccc3n2)s1,-2.54%
10,CCOC(=O)N1CCN(C(=O)c2cc(-c3ccncc3)nc3ccccc23)CC1,-2.26%
11,C=CCSc1nnc2c3sc4nc(N5CCOCC5)c5c(c4c3ncn12)CC(C)(C)OC5,-1.82%
12,COc1ccccc1/C=C(\NC(=O)c1ccccc1)C(=O)Nc1ccc(C)cc1C,-2.51%
13,O=C(Cn1c2ccccc2n2nc(-c3cccs3)nc12)c1ccccc1,2.03%
14,C=CCn1c(SCC(=O)Nc2ccc(NC(C)=O)cc2)nc2sc3c(c2c1=O)CCC3,9.33%
15,CCCCCn1c(C)nc2c(sc3nc4c(cc32)COC(C)(C)C4)c1=O,0.673%
16,CCCn1c(=O)c2sccc2n2c(CCCC(=O)NC3CCCCC3C)nnc12 (centres unmarked),-3.88%
17,COc1cc(OC)cc(C2=N/C(=C\c3ccc(C)cc3)C(=O)O2)c1,-10%
18,Fc1ccc(N2CCN(C3CC4CCC3C4)CC2)cc1 (centres unmarked),0.217%
19,COc1cc(/C=C/C(=O)NCCn2ccc3ccccc32)cc(OC)c1OC,-2.24%
20,O=C(CCC(=O)Nc1cccc2ccccc12)Nc1cccc2ccccc12,0.324%
21,CC(CCc1ccccc1)NCc1ccc(C(=O)O)s1 (centres unmarked),-2.37%
22,CCc1nnc(NC(=O)c2cccc(Cl)c2Cl)s1,12%
23,Cc1ccc(S(=O)(=O)Cc2ccc(C(=O)N3CCN(Cc4ccccc4)CC3)o2)cc1,-4.96%
